The structures appear in SMILES notation. Where “and” joins values, the source holds several entries; their conditions need not be identical. Equal values may be shown once.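 The compound was tested at five concentrations on cells cultured in 96-well plates, with a 48-hour exposure period. Abbreviation: GI50, concentration required for 50% inhibition of growth. At the TGI there is no net growth.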 Calls of active or inactive are those of the source. Rule as the data show it: active = GI50 below about 0.43 µM; inactive = the rest.

The subject of this experiment is NCI-H322M lung. Put plainly: DTP human tumour cell line panel, 48 h.
On to `CCOc1cc2c[n+](C)c3c4cc(OC)c(OC)cc4ccc3c2cc1OC`, for which the TGI is over 100 µM.
For the molecule `CCOC(=O)N/N=C(\Cc1ccccc1)OCC`, the TGI was over 100 µM.
Take `O=C(O)CCCn1c(SCc2c(Cl)cccc2Cl)nc2ccsc2c1=O`: the GI50 was 0.68 µM and the TGI was over 100 µM.
On to `O[N+]1=CC=CCC1=S.On1ccccc1=S.[Zn]`, for which the GI50 was 1.51 µM and the TGI stood at 3.11 µM.
For `Clc1ccc(C2c3ccccc3-c3nccn32)c(Cl)c1` (stereo unspecified), the GI50 is 14 µM and the TGI was found to be 27.2 µM.
`NC(=O)C1(c2ccccc2)Nc2ccccc2S1` (stereo unspecified) came in with a TGI of over 100 µM.
`COC(=O)CCCc1c(-c2[nH]c3ccccc3c2CCCC(=O)OC)[nH]c2ccccc12` showed a TGI of over 100 µM.
Consider `O=C(O)C(Cc1c[nH]c2ccccc12)C(=O)NO` (stereo unspecified), for which the TGI is over 100 µM.
With `COc1c2c(cc3nc4ccccc4nc13)CC[C@H](NC(C)=O)c1cc(=O)c(SC)ccc1-2`, the TGI is over 100 µM.
Turning to `O=C(CON1C(=O)c2ccccc2C1=O)c1ccccc1`, the TGI was over 100 µM.
In the case of `CC(C)(C)OC(=O)Nc1nnc(S(N)(=O)=O)s1`, the TGI was over 100 µM.
Same read-out and setting: the same measure for `CN(C(=O)c1ccccc1)C1CCCC(=O)CC1` (stereo unspecified): over 100 µM; for `COc1cc(O)c2c(=O)c(OC)c(-c3ccc(OC)c(OC)c3)oc2c1.[Co]`: over 100 µM.
As to `Cc1ccc(/C=C2\N=C(N3CCOCC3)NC2=O)cc1`, the TGI was over 100 µM.
In the case of `Cc1cc(Nc2cccc(F)c2)nc(NCc2ccccc2)n1`, the GI50 was 12.2 µM and the TGI was found to be 24.7 µM.
Regarding `Cc1c(C(=O)O)n(-c2ccc(Cl)cc2)c2ncnc(N)c12`, the GI50 was 24.2 µM and the concentration for total growth inhibition (TGI) stood at 76.8 µM.
As for `COc1ccc2c(c1)c(=O)c1c(NCCN(C)C)ccc3c(=O)n(CCN(C)C)c(=O)n2c31`, the TGI was 0.6 µM.
Take `O=C1OC2C(O)COC2(O)C1(O)Cc1c[nH]c2ccccc12` (stereo unspecified): the TGI is over 100 µM.
`CCN(CC)CCOc1ccc(/C=C2\CC3C4CC=C5C[C@@H](N6CCCC6)CC[C@]5(C)C4CC[C@]3(C)[C@H]2OC(C)=O)cc1OC` (stereo partly specified): the GI50 is 0.861 µM and the TGI stood at 2.47 µM.
Turning to `O=C(N/N=C\c1c(O)ccc2ccccc12)C1CC1`, the GI50 is 3.46 µM and the TGI came to 65.1 µM.
As for `CCCCc1ccc(Nc2nc(=S)c3ncn(COCCO)c3[nH]2)cc1`, the TGI is over 100 µM.
Regarding `Cc1ccc2nc(NC(=O)C(=O)C3C(=O)NC(=S)NC3=O)sc2c1`, the TGI was over 100 µM.
Molecule `CC(=NC1CCCCC1)c1ccccc1O` yielded a TGI of over 100 µM.
Take `c1ccc([P+](CCN2Cc3ccccc3C2)(c2ccccc2)c2ccccc2)cc1`: the TGI came out at 79.7 µM.
Molecule `CCCNC(=O)C(C)(Cl)C(=O)c1ccccc1O` (stereo unspecified) yielded a TGI of over 100 µM.
On to `C[C@]12CCC3c4ccc(O)cc4CCC3C1CC[C@@]2(O)C#Cc1ccc(C#C/C=C\C#Cc2ccccc2N)cc1` (stereo partly specified), for which the GI50 was 12.6 µM and the TGI is 56.7 µM.
Regarding `CN1CCN(c2ccc3nc(-c4c5cccccc-5[nH]c4=O)[nH]c3c2)CC1`, the GI50 is 13.9 µM and the TGI is 62.4 µM.
The molecule `CC(C)=CC1CCc2ccccc2N1S(=O)(=O)c1ccc(C)cc1` (stereo unspecified) yielded a TGI of over 23.7 µM.
As to `CC(=O)NC1C(OCc2ccccc2)OC(CO)C(O)C1OCC(=O)N1CCCC1C(=O)N[C@@H](CCC(=O)NCCNCCNc1c2ccccc2nc2cccc([N+](=O)[O-])c12)C(N)=O` (stereo partly specified), the TGI was determined as 35.8 µM.
As to `CC(=O)SSC1(Cl)C(C)(C)C(Cl)(SSC(C)=O)C1(C)C` (stereo unspecified), the TGI was over 100 µM.
In the case of `CN1CCN(CCn2c3c4ccccc4ccc3c3oc(=O)c4ccccc4c32)CC1`, the GI50 is 1.72 µM; the TGI was 3.11 µM and 19.7 µM.
For the molecule `CC1=C(C(=O)CC(=O)C(=O)Nc2ccccc2C(F)(F)F)Sc2ccccc2N1`, the TGI is over 100 µM.
The molecule `Cn1cnc([N+](=O)[O-])c1[Se]c1ncnc2nc[nH]c12` returned a TGI of 50 µM.
The same measure, in the same setting: the same measure for `Cc1cc(C)c2c(=O)n(CN3CCC(C#N)(c4ccccc4)CC3)sc2n1`: over 100 µM.
`CC(C)NCC(O)c1cc(OCc2ccccc2)c(OCc2ccccc2)cc1NC(=O)CCC(=O)O` (stereo unspecified) returned a TGI of 28.6 µM.
As to `CCCCCCCCC1=CCC(CN(C)C)C1=O` (stereo unspecified), the TGI is over 100 µM.
On the same count and under the same terms, the same measure for `CC(C)c1cc(C(F)(F)F)nc(NNc2nc(C(C)C)cc(C(F)(F)F)n2)n1`: over 100 µM; for `c1ccc(NNN2NC(c3ccccc3)C2c2ccccc2)cc1` (stereo unspecified): over 100 µM; for `Cc1cc(C)c(C#N)c(SC(=S)NC(=O)c2ccc(Cl)cc2)n1`: over 100 µM.
Take `CC1=NN(c2nc(N)nc(/C(C#N)=C\C3COc4ccccc4C3=O)n2)C(C)(C)C1` (stereo unspecified): the TGI was over 100 µM.
`COc1cccc(C2C(C(=O)O)=C(CO)Oc3cc4c(cc32)OCO4)c1OC` (stereo unspecified) showed a TGI of over 100 µM.
Turning to `O=C(N=C1N(c2ccccc2)C(=O)C(=O)N1c1ccccc1)c1ccccc1`, the TGI was found to be 44.3 µM.
In the case of `O=[N+]([O-])/C(C(Cl)=C(Cl)Cl)=C(\Nc1cccc2ccccc12)Sc1ccccc1`, the TGI worked out at 63.8 µM.
`NNC1=N/C(=C\c2ccccc2O)C(=O)N1` had a TGI of over 100 µM.
`Cc1ccc(-c2cc(C(=O)N3N=C(c4ccc(N)cc4)CC3c3ccc(Cl)cc3)c3ccccc3n2)cc1` (stereo unspecified): the GI50 is 4.73 µM and the TGI was over 100 µM.
As to `FC(F)(F)c1ccc(-c2cncn2-c2ccccc2)cc1`, the GI50 is 17 µM and the TGI amounted to 46.1 µM.
`CNC(=O)C(C)C1C(=O)/C(=C(O)/C=C\C(C)=C\C(C)C2OC3(C)OC(C=CC34CO4)C2C)C(=O)N1C1CCC(O)C(C)O1` (stereo unspecified) yielded a TGI of over 100 µM.
Consider `CC(C)(N=NC(C)(C)C(=N)N)C(=N)N`, for which the TGI is over 100 µM.
Take `Nc1cc2c(nc3c4ccccc4c(N)cc3[n+]2-c2cccc3ccccc23)c2ccccc12` (tested in a mixture with another compound): the total growth inhibition concentration (TGI) was 18.9 µM.
Regarding `O=C1c2ccccc2CCC1C(O)(C(F)(F)F)C(F)(F)F` (stereo unspecified), the TGI was over 100 µM.
Regarding `O=C1CCC(O)=C1N=Nc1cc(Cl)cc(Cl)c1`, the TGI is over 100 µM.
As for `C[C@@]1(CO)O[C@H]1CCC#C[Si](C)(C)C`, the outcome was inactive.
Turning to `O=C(Nc1cccc(-c2cccc(F)c2)c1)C1CCN(Cc2cccc3cccnc23)CC1`, the GI50 is 3.06 µM and the TGI was found to be 12.1 µM.
`COc1ccc(CC#N)c(OCc2ccccc2)c1` returned a TGI of 74.4 µM.
`O=C(/C=C/c1ccc(OCCSCCCCCCCCCCSCCOc2ccc(/C=C/C(=O)c3ccc(Cl)cc3)cc2)cc1)c1ccc(Cl)cc1` registered a TGI of over 100 µM.
Consider `CN1CCN(CC(=O)Nc2cccc3ccccc23)CC1`, for which the TGI is over 100 µM.
Regarding `COc1ccc(/C=C2/N=C(N/N=C\C(O)C(O)C(O)C(O)CO)NC2=O)cc1` (stereo unspecified), the TGI is over 100 µM.
`Nc1nc(N)c2cc(CNc3ccc(C(=O)NC(CC(=O)O)C(=O)O)cc3)ccc2n1` (stereo unspecified): the GI50 was 0.406 µM and the TGI is over 100 µM.
Consider `COc1ccc(C=Nc2c(O)ccc3ccccc23)cc1OC`, for which the TGI was over 100 µM.
Still for that read-out and setting: the same measure for `Cc1ccc(C2c3c(n(C)c(=O)n(C)c3=O)OC(N(C)C)(N(C)C)C2(F)F)cc1` (stereo unspecified): over 100 µM; for `CN=C(NN)NS(=O)(=O)c1cc(C)c(Cl)cc1S`: over 100 µM.
In the case of `Cc1c2cnccc2c(C)c2c1c1cc(CO)ccc1n2C`, the GI50 was 0.24 µM and the TGI worked out at 1.71 µM.
`C[N+](C)=C/C=C(\Cl)c1ccc2ccccc2c1` displayed a TGI of 33.5 µM.
Take `Nc1nc2c(ncn2CC2CCC(CO)C2)c(=O)[nH]1` (stereo unspecified): the TGI is over 100 µM.
The molecule `COC(=O)C1CC2C=CC1N(C(=O)OCc1ccccc1)C2` (stereo unspecified) returned a TGI of over 100 µM.
The same measure, in the same setting: the same measure for `c1cc(-c2ccsc2-c2ccsc2)cs1`: over 100 µM; for `NC(N)=C1CN(C2CCCCC2)C(=O)NC1=O`: over 100 µM.
As for `Cn1cc(C2=C(c3cn(CCCO)c4ccccc34)C(=O)NC2=O)c2ccccc21`, the GI50 was 3.8 µM and the TGI came to 16.7 µM.
Molecule `COc1cc(/C=N/c2nncs2)ccc1O` showed a TGI of over 100 µM.
On to `FC(F)(F)C1(Cl)C(Cl)(c2ccccc2)C1(Cl)c1ccccc1` (stereo unspecified), for which the TGI turned out to be 31.3 µM.
For the molecule `CC(=O)Oc1ccc(O)c2c1CCCC2`, the TGI is over 100 µM.
As to `CO[C@H](C(=O)[C@@H](O)[C@@H](C)O)[C@@H]1Cc2cc3cc(O[C@H]4C[C@@H](O[C@H]5C[C@@H](O)[C@H](O)C(C)O5)[C@H](O)C(C)(O)O4)cc(O)c3c(O)c2C(=O)[C@H]1O[C@H]1C[C@@H](O[C@H]2C[C@@H](O[C@H]3C[C@@H](OC)[C@H](O)C(C)O3)[C@@H](O)C(C)O2)[C@H](O)C(C)O1` (stereo partly specified), the GI50 is 0.798 µM and the TGI was over 16.8 µM.
For `NC(=O)N/N=C\c1ccccc1OCc1cccc(COc2ccccc2/C=N\NC(N)=O)n1`, the concentration for total growth inhibition (TGI) is over 100 µM.
As for `O=C(O)c1cc(-c2ccc3c(O)ccc(O)c3c2)ccc1O`, the TGI is over 100 µM.
With `COC(=O)C1=C(O)[C@H](C(=O)OC)C2(O)[C@@H](C(=O)OC)[C@H]1C[C@@H](c1ccc(OC(=O)n3ccnc3)cc1)[C@@H]2C(=O)OC`, the GI50 is 21.6 µM and the TGI was over 50 µM.
`CC(C)C(=O)N1C(=O)O[C@@H](c2ccccc2)[C@H]1C` returned a TGI of over 100 µM.
Take `CCCCOC(=O)NC(Nc1ccc(S(N)(=O)=O)cc1)(C(F)(F)F)C(F)(F)F`: the TGI is over 100 µM.
The molecule `OC1CC2CCCN(CCc3c1[nH]c1ccccc31)C2` (stereo unspecified) gave a TGI of over 100 µM.
Turning to `CC(=O)OC[C@]1(C)C=C2C(=O)[C@](C)(O)C3(CC3)C(C)=C2[C@H]1OC(=O)N(C)CCN(C)C(=O)OC(C)(C)C`, the GI50 was 1.1 µM and the TGI stood at 7.45 µM.
With `COc1ccc2c(c1)C(=O)c1c-2n(CCCNCCO)c(=O)c2ccccc12`, the GI50 was 0.309 µM and the TGI is 2.33 µM.
Regarding `Cc1cccc(C)c1NC(=O)C(=O)C(C#N)c1ccccc1Cl` (stereo unspecified), the total growth inhibition concentration (TGI) was over 100 µM.
With `COc1ccc(-c2cc(-c3ccc(Nc4ccnc5cc(C(F)(F)F)ccc45)cc3)nc(N)c2C#N)cc1`, the TGI was over 100 µM.
`Cc1nn2c(C(=O)N/N=C/c3ccccc3O)c(C)nc2s1` came in with a TGI of over 100 µM.
On the same count and under the same terms, the same measure for `CN(C)CCNc1ccc2c(=O)n(CCN(C)C)c(=O)n3c4ccccc4c(=O)c1c23`: 0.97 µM; for `O=C(O)C1CCCN1C(=O)c1cc(Cl)ccn1` (stereo unspecified): over 100 µM; for `O=C(/C=C1\C[C@H]2C=Nc3ccccc3C(=O)N2C1)NCCCNC(=O)/C=C1\C[C@H]2C=Nc3ccccc3C(=O)N2C1`: 31.1 µM.

Values taken from PubChem BioAssay (NCI).
